Read counts are not given, so values of variants with three or more changes are uncertain.

Sequences and labels used below:
B1: LINE1-full (parent)
chain: UACGUAGGUGGUUUUCCCCUGAUAGUGCUAAGGGGGCCUGGAAGUUUGGACUGGGCAGAGCUCAACACAGCGUGGCAAAGUGGCUGUGGCUAGACUGCCUCUCUGGAUUCCUCGUCACUCAGCAGGGCAUCUCUGAGAGAAAUGCC

This data set covers variants of B1. As to the kind of experiment: self-cleavage, relative activity (ratio to wild type); higher = more cleavage; in vitro, sequencing; the parent is a self-cleaving ribozyme.
Consider UACGUAGGUGGUUUUCCCCUGAUAGUGCUAAGGGGGCCUGGAAGUAUGGACUGGGCAGAGCCCAACACAGCGUGGCAAAGUGGCUGUGGCUAGGCUGCCUCUCUGGAUUCCUCGUCACUCAGCGGGGCAUCUCUGAGAGAAAUGCC [U46A U62C A94G A124G], for which the self-cleavage stood at 0. Turning to UACGUAGGUGGUUUUCCCCCGAUAGUGCUAAGGGGGCCCGGAAGUUUGGACUGGGCGGAGCUCAACACAGCGUGGCAAAGUGGCUGUGGCUAGACCGCCUCUCUGGAUUCCUCGUCACUCAGCAGGGCAUCUCUGAGAGAAGUGCC [U20C U39C A57G U96C A142G], the self-cleavage was 0.

Consider UGCGUAGGUGGUUUUCCCCUGAUAGUGCUAAGGGGGCCUGGAAGUUUGGACUGGGCAGAGCUCAACACAGCGUGGCAAGGCGGCUGUGGCUAGACUGCCUCUCUGGAUUCCUCGUCACUCAGCAGGGCAUCUCUGAGAGAAGUGCC [A2G A79G U81C A142G], for which the self-cleavage was found to be 0. As to UGCGUAGGUGGUUUUCCCCUGAUAGUGCUAAGGGGGCCUGGAAGUUUGGACUGGGCAGAGCUCAACACAGCGUGGCAAAGAGGCUGUGGCUAGACUGCCUCUCUGGAUUCCCCGUCACUCAGCAGGGCAUCUCCGAGAGAAAUGCC [A2G U81A U112C U134C], the self-cleavage was 1.46. For UACGUAGGUGGUUUUCCCCUGAUAGUGCUAAGGGGGCCUGGAAGUUUGGACUGGGCAGAGCUCGACACAGCGUGGCAAAGUGGCUGUGGUUAGUCUGCCUCCCUGGAUUCCUCGUCACUCAGCAGGGCAUCUCUGAGAGAAAUGCC [A64G C90U A94U U102C], the self-cleavage was determined as 0.04.

UACGUAGGUGGUUUUCCCCUGAUAGUGCUAAGGGGGCCUGGAAGUUUGGGCUGGGCAGAGCUCAACACAGCGUGGCAAAGUGGCUGUGGCUAGACUGCCUCUCUGGAUUCCUCGUCACUCAGCAGGGCAUCUCUGAGUGAAAUGUC [A50G A138U C145U]: the self-cleavage stood at 0.73. For UACGCAGGUGGUUCUCCCCUGAUAGUGCUAAGGGGGCCUGGAAGUUUGGACUGGGCAGUGCUCAACACAGCGUGGCAAAGUGGCUGUGGCUAGACUGCCUCUCUGGAUUCCUCGUCACUCAGCAGGGCAUCUCUGAGAGAAAUGCC [U5C U14C A59U], the self-cleavage stood at 0.67. With UACGUAGGUGGUUUUCCCCUGAUUGCGCUAAGGGGGUCUGGAAGUUUGGACUGGGCAGAGCUCAACACAGCGUGGCAAAGUGGCUGUGGCUAGACUGCCUCUCUGGAUUCCUCGUCACUCAGCAGGGCAUCUCUGAGAGAGAUGCC [A24U U26C C37U A141G], the self-cleavage was determined as 1.

As for UACGUAGGUGGUUUUCCCUUGAUAGUGCUAAGGGGGCUUGGAAGUUUGGACUGGGCAGAGCUCAACACAGCGUGGCAAAGUGGCUGUGGCUAGACUGCCUCUCUGGAUUCCUCGUCACUCAGCAGGGCAUCUCUGAGAGGAAUGCC [C19U C38U A140G], the self-cleavage amounted to 0.75. On to UACAUAGGUGGUUUUCCCCUGAUAGGGCUAAGGGGGCCUGGAAGUUUGGACUGGGCAGAGCUCAACACAGUGUGGCAAAGUGGCUGUGGCUAGACUGCCUCUCUGGAUUCCUCGUCACUCAGCAGGGCAUCUCUGAGAGAAACGCC [G4A U26G C71U U143C], for which the self-cleavage was 0.64. On to UACGUAGGUGGUUUUCCCCUGAUAGUGCUAAGGGGGCCCGGAAGUUUGGACUGGGCAGAGCUCAACACAGCGUGGCAAAGUGGCUGUGGCUAGACAGCCUCUCUGGAUUCCUCGUCACUCAGCGGGGCAUCUCUGAGAGAAAUGCC [U39C U96A A124G], for which the self-cleavage is 0.08. With GACGUAGGUGGUUUUCCCCUGAUAGUGCUAAGGGGGCCUGGAAGUUUGGACUGGGCAGAGCUCAACACAGCGUGGCAAAGUGGCUGUGGCUAGACUGCCUCUCUGGAUUCCUCGUCGCCCAGCAGGGCAUCUCUGAGAGAAAUGCC [U1G A117G U119C], the self-cleavage came to 0.71. For the variant UACGUAGGUGGUUUUCCCCUGAUAGUGCUAAGGGGGCCUGGAGGUUUGGACUGGGCAGAGCCCAACACAGCGUGGCAAAGUGGCUGUGGCUAGACUGCCUCUCUGGAUUCCUCGUCGCUCAGCAGGGCAUCUCUGAGAGAAAAGCC [A43G U62C A117G U143A], the self-cleavage was found to be 0.97.

Consider UACGUAGGUGGUUUUCCCCUGAUAGUGCUAAGGGGGCCUGGAAGUUUGGACUGGGCAGAGCUCAACACAGCGGGGCAAAGUGGCUGUGGCUAGACUGCCUCUCUGGAUUCCUCGGCACUCAGCAGGGCAUCUCCGAGAGAAAUGCC [U73G U115G U134C], for which the self-cleavage is 1.25. For UACGUAGGUGGUUUUCCCCUGACAGUGCUAAGGGGGCCUGGAAGUUUGGACUGGGCAGAGCUCAACACAGCGUGGCAGAGUGGCUGUGGCUAGACUGCCUCUCAGGAUUCCUCGUCACUCAGCAGGGCAUCUCUGAGAGAAAUGCC [U23C A78G U104A], the self-cleavage was determined as 1.07. The figure for UGCGUAGGUGGUUUUCCCCUGAUAGUGCUAAGGGGGCCCGGAAGUUUGGACUGGGCAGAGCUCAACACAGCGUGGCGAAGUGGCUGUGGCUAGACUGCCUCUCUGGAUUCCUCGUCACUCAGCAGGGCGUCUCUGAGAGAAAUGCC [A2G U39C A77G A129G] is 1.15. As to UACGUAGGUGGUUUUCCCCUGAUAGUGCUAAGGGGGCCUGGAAGUUUGGACUGGGCAGAGCUCAACACAGCGUGGCAAAGUGGCUGCGGCUUGACUGCCUCUCUGGAUUCCUCGUCACUCAGCAGGGCAUCUCAGAGUGAAAUGCC [U87C A92U U134A A138U], the self-cleavage was determined as 0.12. Regarding UACGUAGGUGGUUUUCCCCUGAUAGUGCUAAGGGCGCCUGGAAGUUUGGACCGGGCAGAGCUCAACACAGCGUGGCAAAGUGGCUGUGGCUAGACUGCCUCUCCGGAUUCCUCGUCACUCAGCAGGGCAUCCCUGAGAGAAAUGCC [G35C U52C U104C U132C], the self-cleavage is 0.92. Turning to UGCGUAGGUGGUUUUCCCCUGAUAGUGCUAAGGGGGCCUGGAAGUCGGGACUGGGCAGAGCUCAACACAGCGUGGCAAAGUGGCUGUGGCUAGACUGCCUCUCUGGAUUCCUCGUCACUCAGCAUGGCAUCUCCGAGAGAAAUGCC [A2G U46C U47G G125U U134C], the self-cleavage came to 0.79. For UACGUAGGUGGUUUUCCCCUGAUAGUGCUAAGGGGGCCUGGAAGUUUGGACUGGGCGGGGCUCAACACAGCGUGGCAAAGUGGCUGUGGCUAGACUGCCUCUCUGGAUUCCUCGCCACUCAGCAGGGCAUCUCUGAGAGAAAUGCC [A57G A59G U115C], the self-cleavage was 0.

The values above are taken from the RNAGym collection of RNA variant scans (doi:10.7554/elife.90254).
